From the supplement of paper PMC4967469
A lower IC50 marks a more sensitive line; a limit (>, <) means that the fit lies beyond the doses tested. The AUC spans the tested range (256-fold, ending at the top dose) of the same fit; the more sensitive the line, the further below 1. For some assays here: Where the top dose is marked as inferred, it is not printed in the source and was worked back from the curve model. For some assays here: Where an entry number is given, a second screen of the drug exists; the two often differ.

Experiments:
Assay in all cases: Viability of human cancer cell lines after 72 h of drug (GDSC screen)
Thapsigargin = compound: C/C=C(/C)C(=O)O[C@H]1C(C)=C2[C@H]([C@@H]1OC(=O)CCCCCCC)[C@@](C)(OC(C)=O)C[C@H](OC(=O)CCC)[C@@]1(O)[C@H]2OC(=O)[C@@]1(C)O [Thapsigargin]; conditions: top dose 0.512 µM; top dose inferred
Protocol: (§1)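 Human cancer cell lines in 384-well plates, medium with 10% serum, drug for 72 h over a 256-fold dose range (nine 2-fold or five 4-fold steps up to the top dose). Adherent lines were fixed and stained with the nucleic acid dye Syto60, suspension lines read with resazurin; signal relative to control wells, capped at 0 and 100%. One two-parameter sigmoid per drug and line, fitted in a mixed model over all curves with the slope shared within a line.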

QL-X-138 = compound: C=CC(=O)Nc1cc(-n2c(=O)ccc3cnc4ccc(-c5cn[nH]c5)cc4c32)ccc1C [QL-X-138]; conditions: top dose 10.24 µM; top dose inferred
Protocol: as §1

GSK269962A = compound: CCn1c(-c2nonc2N)nc2cnc(Oc3cccc(NC(=O)c4ccc(OCCN5CCOCC5)cc4)c3)cc21 [GSK269962A]; conditions: top dose inferred
Protocol: as §1

MPS-1-IN-1 = compound: COc1cc(N2CCC(O)CC2)ccc1Nc1cc(Nc2ccccc2S(=O)(=O)C(C)C)c2cc[nH]c2n1 [MPS-1-IN-1]; conditions: top dose 20 µM; top dose inferred
Protocol: as §1

(5Z)-7-Oxozeaenol = compound: COc1cc(O)c2c(c1)/C=C/C[C@H](O)[C@H](O)C(=O)/C=C\C[C@H](C)OC2=O [(5Z)-7-Oxozeaenol]; conditions: top dose 10 µM; top dose inferred
Protocol: as §1

CP466722 = compound: COc1cc2ncnc(-n3nc(-c4ccccn4)nc3N)c2cc1OC [CP466722]; conditions: top dose 16 µM; top dose inferred
Protocol: as §1

Zibotentan = compound: COc1nc(C)cnc1NS(=O)(=O)c1cccnc1-c1ccc(-c2nnco2)cc1 [Zibotentan]; conditions: top dose 20 µM; top dose inferred
Protocol: as §1

ABT-888 = compound: C[C@]1(c2nc3c(C(N)=O)cccc3[nH]2)CCCN1 [ABT-888]; conditions: top dose 5 µM; top dose inferred
Protocol: as §1

CMK = compound: Cc1ccc(-c2c(C(=O)CCl)n(CCCO)c3ncnc(N)c23)cc1 [CMK]; conditions: top dose 4 µM; top dose inferred
Protocol: as §1

ABT-869 = compound: Cc1ccc(F)c(NC(=O)Nc2ccc(-c3cccc4[nH]nc(N)c34)cc2)c1 [ABT-869]; conditions: top dose 1.024 µM; top dose inferred
Protocol: as §1

CHIR-99021 = compound: Cc1cnc(-c2cnc(NCCNc3ccc(C#N)cn3)nc2-c2ccc(Cl)cc2Cl)[nH]1 [CHIR-99021]
Protocol: as §1

Cytarabine = compound: Nc1ccn([C@@H]2O[C@H](CO)[C@@H](O)[C@@H]2O)c(=O)n1 [Cytarabine]; conditions: top dose 2 µM
Protocol: as §1

KU-55933 = compound: O=c1cc(-c2cccc3c2Sc2ccccc2S3)oc(N2CCOCC2)c1 [KU-55933]; conditions: top dose 10 µM
Protocol: as §1

[1] = top dose 5 µM, screen: GDSC drug entry 1192
[2] = top dose 2.56 µM, screen: GDSC drug entry 154
[3] = top dose 10 µM, screen: GDSC drug entry 1241, top dose inferred
[4] = top dose 2.5 µM, screen: GDSC drug entry 127

Cell Line	AUC (Thapsigargin)	IC50 (Thapsigargin) [µM]	AUC (QL-X-138)	IC50 (QL-X-138) [µM]	AUC (GSK269962A; [1])	IC50 (GSK269962A; [1]) [µM]	AUC (MPS-1-IN-1)	IC50 (MPS-1-IN-1) [µM]	AUC ((5Z)-7-Oxozeaenol)	IC50 ((5Z)-7-Oxozeaenol) [µM]	AUC (CP466722)	IC50 (CP466722) [µM]	AUC (Zibotentan)	IC50 (Zibotentan) [µM]	AUC (ABT-888)	IC50 (ABT-888) [µM]	AUC (CMK)	IC50 (CMK) [µM]	AUC (ABT-869)	IC50 (ABT-869) [µM]	AUC (CHIR-99021; [2])	IC50 (CHIR-99021; [2]) [µM]	AUC (CHIR-99021; [3])	IC50 (CHIR-99021; [3]) [µM]	AUC (Cytarabine)	IC50 (Cytarabine) [µM]	AUC (KU-55933)	IC50 (KU-55933) [µM]	AUC (GSK269962A; [4])	IC50 (GSK269962A; [4]) [µM]
KARPAS-620 (haematopoietic neoplasm, suspension)	0.088	< 0.002	0.389	0.332	0.93	> 5	0.869	14.1	0.666	1.68	0.625	2.09	0.991	> 20	0.991	> 5	0.88	3.14	0.99	> 1.02	0.99	> 2.56	0.977	> 10	0.99	> 2	0.964	> 10	–	–
KCL-22 (chronic myeloid leukaemia, suspension)	0.353	0.0135	0.412	0.383	0.955	> 5	0.915	> 20	0.692	1.95	0.691	3.1	0.989	> 20	0.991	> 5	0.88	3	0.952	> 1.02	0.988	> 2.56	0.974	> 10	0.727	0.486	0.965	> 10	0.987	> 2.5
KE-37 (lymphoblastic leukaemia, suspension)	0.251	0.00768	0.358	0.288	0.946	> 5	0.865	11.2	0.85	5.01	0.441	0.719	0.99	> 20	0.992	> 5	0.981	> 4	0.993	> 1.02	0.988	> 2.56	0.85	4.99	0.269	0.0334	0.959	> 10	0.938	> 2.5
KELLY (neuroblastoma, adherent)	0.483	0.0289	0.923	> 10.2	0.446	0.225	0.653	3.19	0.575	0.982	0.798	6.83	0.974	> 20	0.989	> 5	0.989	> 4	0.974	> 1.02	0.989	> 2.56	0.88	8.71	0.66	0.332	0.945	> 10	0.926	> 2.5
KGN (ovary, adherent)	0.143	< 0.002	0.408	0.338	0.852	> 5	0.863	> 20	0.564	0.973	0.6	2	0.978	> 20	0.98	> 5	0.843	3.78	0.981	> 1.02	0.956	> 2.56	0.863	> 10	0.901	> 2	0.959	> 10	0.675	0.537
KINGS-1 (glioma, adherent)	0.341	0.00972	0.716	3.35	0.917	> 5	0.943	> 20	0.781	5.86	0.977	> 16	0.977	> 20	0.975	> 5	0.976	> 4	0.974	> 1.02	0.98	> 2.56	0.794	6.68	0.837	> 2	0.94	> 10	0.954	> 2.5
KLE (endometrium, adherent)	0.572	0.056	0.673	2.56	0.918	> 5	0.877	> 20	0.86	> 10	0.775	10.3	0.969	> 20	0.974	> 5	0.868	> 4	0.964	> 1.02	0.94	> 2.56	0.889	> 10	0.937	> 2	0.952	> 10	–	–
KM12 (large intestine, adherent)	0.335	0.0107	0.821	6.63	0.984	> 5	0.839	15.4	0.9	> 10	0.916	> 16	0.985	> 20	0.985	> 5	0.921	> 4	0.971	> 1.02	0.956	> 2.56	0.968	> 10	0.903	> 2	0.978	> 10	0.901	> 2.5
KM-H2 (Hodgkin lymphoma, suspension)	0.237	0.00646	0.8	4.1	0.958	> 5	0.968	> 20	0.894	8.78	0.828	7.86	0.99	> 20	0.987	> 5	0.979	> 4	0.989	> 1.02	0.993	> 2.56	0.992	> 10	0.993	> 2	0.949	> 10	0.974	> 2.5
KMOE-2 (acute myeloid leukaemia, suspension)	0.678	0.0946	0.643	1.52	0.946	> 5	0.81	9.16	0.343	0.241	0.649	2.46	0.99	> 20	0.986	> 5	0.976	> 4	0.99	> 1.02	0.99	> 2.56	0.989	> 10	0.874	1.59	0.861	7.03	0.98	> 2.5
KNS-42 (glioma, adherent)	0.276	0.00645	0.892	> 10.2	0.861	> 5	0.942	> 20	0.768	4.47	0.871	> 16	0.982	> 20	0.982	> 5	0.931	> 4	0.981	> 1.02	0.957	> 2.56	0.935	> 10	0.964	> 2	0.956	> 10	0.902	> 2.5
KNS-81-FD (glioma, adherent)	0.857	> 0.512	0.668	2.23	0.737	1.93	0.971	> 20	0.596	1.25	0.914	> 16	0.976	> 20	0.974	> 5	0.969	> 4	0.949	> 1.02	0.971	> 2.56	0.961	> 10	0.865	> 2	0.937	> 10	0.919	> 2.5
KP-N-YN (neuroblastoma, adherent)	0.509	0.0338	0.912	> 10.2	0.874	> 5	0.959	> 20	0.489	0.58	0.963	> 16	0.982	> 20	0.985	> 5	0.943	> 4	0.984	> 1.02	0.986	> 2.56	0.812	5.98	0.972	> 2	0.953	> 10	0.985	> 2.5
KS-1 (glioma, adherent)	0.263	0.00558	0.486	0.581	0.46	0.236	0.838	18.7	0.556	0.924	0.691	3.97	0.977	> 20	0.97	> 5	0.692	0.994	0.979	> 1.02	0.958	> 2.56	0.947	> 10	0.888	> 2	0.95	> 10	0.219	0.0186
KU812 (chronic myeloid leukaemia, suspension)	0.168	0.00354	0.619	1.32	0.676	0.92	0.974	> 20	0.462	0.497	0.643	2.39	0.986	> 20	0.978	> 5	0.873	3.28	0.984	> 1.02	0.951	> 2.56	0.943	> 10	0.719	0.49	0.946	> 10	0.91	> 2.5
KY821 (leukaemia, suspension)	0.316	0.0106	0.872	7.69	0.99	> 5	0.919	> 20	0.732	2.58	0.87	11.8	0.987	> 20	0.989	> 5	0.835	2.17	0.991	> 1.02	0.992	> 2.56	0.99	> 10	0.902	> 2	0.9	> 10	0.989	> 2.5
